According to PubChem BioAssay AID1460 (National Center for Advancing Translational Sciences (NCATS), 2008):
In all, about 270,000 compounds went through this assay and about 5,800 (2.1%) were called active. This list was built around the results that the source calls inconclusive (neither active nor inactive); the mix of calls is not that of the screen. The call rests on the fitted dose curve; in most records, active means well fitted inhibition curve with a large enough effect; inconclusive means small, poorly fitted or top-dose-only effect; inactive means flat fitted curve, though single readings scatter. Potencies beside an inconclusive call are fits to weak or partial responses and may not hold up.

What follows are compounds tested against Microtubule-associated protein tau (Homo sapiens) (UniProt P10636) (assay: qHTS for Inhibitors of Tau Fibril Formation, Thioflavin T Binding). Conditions: recombinant tau K18 P301L (four-repeat tau fragment), heparin-induced fibrillization, ThT fluorescence; series mostly up to 57.4 µM.
Chain of UniProt P10636 (P10636 whole entry, looked up, the tested form may be a part): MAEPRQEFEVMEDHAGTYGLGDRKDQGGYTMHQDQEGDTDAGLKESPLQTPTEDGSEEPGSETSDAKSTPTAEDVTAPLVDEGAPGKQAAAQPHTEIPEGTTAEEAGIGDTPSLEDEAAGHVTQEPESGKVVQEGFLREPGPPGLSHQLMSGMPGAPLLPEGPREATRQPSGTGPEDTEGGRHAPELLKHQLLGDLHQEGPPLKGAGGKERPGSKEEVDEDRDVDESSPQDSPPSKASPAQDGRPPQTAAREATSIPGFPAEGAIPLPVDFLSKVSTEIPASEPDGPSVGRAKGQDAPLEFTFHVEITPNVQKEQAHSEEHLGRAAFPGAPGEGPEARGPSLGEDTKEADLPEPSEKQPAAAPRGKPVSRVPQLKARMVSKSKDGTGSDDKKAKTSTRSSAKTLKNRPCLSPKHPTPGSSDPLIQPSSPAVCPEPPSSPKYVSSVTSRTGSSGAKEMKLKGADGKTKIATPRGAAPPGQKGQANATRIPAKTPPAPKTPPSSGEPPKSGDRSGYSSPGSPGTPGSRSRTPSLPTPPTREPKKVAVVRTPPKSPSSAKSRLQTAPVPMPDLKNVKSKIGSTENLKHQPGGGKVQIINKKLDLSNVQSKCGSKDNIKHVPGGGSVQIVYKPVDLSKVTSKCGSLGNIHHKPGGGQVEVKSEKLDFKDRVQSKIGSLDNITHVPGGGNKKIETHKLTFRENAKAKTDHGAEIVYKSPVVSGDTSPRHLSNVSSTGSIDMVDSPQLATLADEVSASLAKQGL
In short: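 Aggregation was driven by heparin (20 uM final) acting on recombinant tau […] bearing P301L in 100 mM sodium acetate pH 7; fibrils were detected with Thioflavin T.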
Further: nearly all actives have a fitted effect of over 55% in size.
Potency means the concentration at half of the fitted maximal effect; tags describe the fitted curve by direction and shape.

Row | Compound | Potency
1 | COC(=O)c1c(NC(=O)C2CC2)sc2c1CCN(C(C)=O)C2 | inactive
2 | Cc1cccc(/C=C(\c2nc3ccccc3[nH]2)S(=O)(=O)c2ccccc2)c1 | inactive
3 | CCN(CC)C(=O)CSc1nc(-c2ccccc2F)nc2c1Cc1c(CO)cnc(C)c1O2 | inconclusive: 12.6 µM [inhibitor, partial curve]
4 | O=C(O)CNC(=O)CC1S/C(=N/N=C2\CSC(=O)N2)NC1=O (centres undefined) | inconclusive: 25.1 µM [inhibitor, single point]
5 | CCOc1ccc2nc(NC(=O)C3CCN(c4cnccn4)CC3)sc2c1 | inconclusive: 14.1 µM [inhibitor, partial curve, poor fit]
6 | CCC(Oc1ccccc1)C(=O)O/N=C(\N)c1ccc(OC)c(OC)c1 (centres undefined) | inconclusive: 39.8 µM [inhibitor, single point]
7 | Cc1c(Cl)cccc1NC(=O)Cn1c(CCC(=O)O)ccc1-c1cccs1 | inconclusive: 15.8 µM [inhibitor, partial curve, poor fit]
8 | CCOc1ccc(-c2cccc(NS(=O)(=O)c3c(C)cc(C)cc3C)c2)nn1 | inactive
9 | CC(=O)c1cccc(NC(=O)c2sc(-n3nc(C)c(Cc4ccc5c(c4)OCO5)c3C)nc2C)c1 | inactive
10 | Cc1ccccc1OCc1nc2ccccc2c(=O)n1/N=C/c1cccc([N+](=O)[O-])c1 | inactive
11 | Cc1nnc2sc(-c3ccc(NC(=O)CSc4ccc(Cl)cc4)cc3)nn12 | inconclusive: 2.51 µM [inhibitor, full curve]
12 | C[C@@](N)(C(=O)O)[C@@H]1C[C@@H]1C(=O)O | inactive
13 | NC(=O)c1ccc(N2CCN(c3ccc(O)cc3)CC2)c([N+](=O)[O-])c1 | active: 17.8 µM
14 | O=[N+]([O-])c1cc(Cl)ccc1N1CCOCC1 | inactive
15 | O=C(O)CCSc1ccc([N+](=O)[O-])cc1[N+](=O)[O-] | inconclusive: 28.2 µM [inhibitor, single point]
16 | O=C(COc1ccccc1)Nc1nnc(-c2ccc3c(c2)CCCC3)o1 | inconclusive: 3.16 µM [inhibitor, partial curve, poor fit]
17 | O=C1c2ccccc2C(=O)c2c1cccc2N1CCOCC1 | inconclusive: 12.6 µM [inhibitor, partial curve]
18 | C[C@@H]1C[C@H]2[C@@H]3C[C@H](F)C4=CC(=O)C=C[C@]4(C)[C@@]3(F)[C@@H](O)C[C@]2(C)[C@@]1(O)C(=O)CO | inconclusive: 44.7 µM [inhibitor, single point]
19 | Cc1nc(NS(=O)(=O)c2ccccc2)sc1NC(=O)Nc1ccc(Cl)cc1 | inconclusive: 25.1 µM [inhibitor, partial curve]
